Structures can show the parent of a compound that is named as a salt. Whole data set: some 1,900 compounds, median “cell viability of compound + 1 nM pemigatinib relative to pemigatinib-only (DMSO) wells” near 0.95, cut for the lowest 2% near 0.22. Some of the results follow.

The assay deals with PDC-DUC18828. The experiment in a line: cell viability of compound + 1 nM pemigatinib relative to pemigatinib-only (DMSO) wells (fraction); PDC-DUC18828 is a patient-derived cholangiocarcinoma cell line; higher = less growth inhibition. The following applies: first compound 1 µM; pemigatinib concentration 1 nM; 72 h. How it is done: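 Selleck Bioactive library screen in the patient-derived FGFR2 fusion-positive ICC cell line PDC-DUC18828 (500 cells/well). Each compound was tested at 1 uM with 1 nM pemigatinib, in triplicate, for 72 h. Viability was read by CellTiter-Glo and normalised to plate DMSO controls. Value is the paper's averaged normalised viability.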
Take `O=C1CCc2ccc(OCCCCN3CCN(c4cccc(Cl)c4Cl)CC3)cc2N1` [Aripiprazole] + CCN1C(=O)N(c2c(F)c(OC)cc(OC)c2F)Cc2cnc3[nH]c(CN4CCOCC4)cc3c21 [pemigatinib]: the cell viability worked out at 0.977.
Consider `CC1(C)CNc2cc(NC(=O)c3cccnc3NCc3ccncc3)ccc21` [Motesanib Diphosphate (AMG-706)] + CCN1C(=O)N(c2c(F)c(OC)cc(OC)c2F)Cc2cnc3[nH]c(CN4CCOCC4)cc3c21 [pemigatinib], for which the cell viability stood at 0.946.
`CC[C@@H]1/C=C(\C)C[C@H](C)C[C@H](OC)[C@H]2O[C@@](O)(C(=O)C(=O)N3CCCC[C@H]3C(=O)O[C@H](/C(C)=C/[C@@H]3CC[C@@H](O)[C@H](OC)C3)[C@H](C)[C@@H](O)CC1=O)[C@H](C)C[C@@H]2OC` [Ascomycin (FK520)] + CCN1C(=O)N(c2c(F)c(OC)cc(OC)c2F)Cc2cnc3[nH]c(CN4CCOCC4)cc3c21 [pemigatinib]: the cell viability came out at 0.947.
For `COC(=O)C1=C(C)NC(C)=C(C(=O)OCC(C)C)C1c1ccccc1[N+](=O)[O-]` (stereo not drawn) [Nisoldipine] + CCN1C(=O)N(c2c(F)c(OC)cc(OC)c2F)Cc2cnc3[nH]c(CN4CCOCC4)cc3c21 [pemigatinib], the cell viability was 1.05.
As for `Oc1cc(O)c(Cl)cn1` [Gimeracil] + CCN1C(=O)N(c2c(F)c(OC)cc(OC)c2F)Cc2cnc3[nH]c(CN4CCOCC4)cc3c21 [pemigatinib], the cell viability is 0.96.
With `COc1ccc2cc(OCC3(C(=O)O)CN(C(=O)c4ccc(F)cc4)C3)ccc2c1` + CCN1C(=O)N(c2c(F)c(OC)cc(OC)c2F)Cc2cnc3[nH]c(CN4CCOCC4)cc3c21 [pemigatinib] the figure was 0.967; with `COCCOc1ccc2c(c1)ncn2-c1ccc2cccc(N3CCC(N)CC3)c2n1` + CCN1C(=O)N(c2c(F)c(OC)cc(OC)c2F)Cc2cnc3[nH]c(CN4CCOCC4)cc3c21 [pemigatinib], 1.11.
Regarding `Cc1cc(Nc2cc(N3CCN(C)CC3)nc(/C=C/c3ccccc3)n2)n[nH]1` + CCN1C(=O)N(c2c(F)c(OC)cc(OC)c2F)Cc2cnc3[nH]c(CN4CCOCC4)cc3c21 [pemigatinib], the cell viability stood at 0.447.
In the case of `COc1ccc(C2CC(c3ccccc3)=NN2c2ccc(S(N)(=O)=O)cc2)cc1` (stereo not drawn) + CCN1C(=O)N(c2c(F)c(OC)cc(OC)c2F)Cc2cnc3[nH]c(CN4CCOCC4)cc3c21 [pemigatinib], the cell viability is 0.978.
On to `Cc1cc(-c2ccc(CC(=O)Nc3ccc(-c4cccnc4)cc3)cc2)ccn1` + CCN1C(=O)N(c2c(F)c(OC)cc(OC)c2F)Cc2cnc3[nH]c(CN4CCOCC4)cc3c21 [pemigatinib], for which the cell viability was found to be 1.03.
Turning to `OC[C@H]1O[C@@H](c2ccc(Cl)c(Cc3ccc(O[C@H]4CCOC4)cc3)c2)[C@H](O)[C@@H](O)[C@@H]1O` + CCN1C(=O)N(c2c(F)c(OC)cc(OC)c2F)Cc2cnc3[nH]c(CN4CCOCC4)cc3c21 [pemigatinib], the cell viability was 0.972.
For `CN(C)c1cccc(-c2c3c(=O)n(-c4ccccc4Cl)[nH]c3cc(=O)n2C)c1` + CCN1C(=O)N(c2c(F)c(OC)cc(OC)c2F)Cc2cnc3[nH]c(CN4CCOCC4)cc3c21 [pemigatinib], the cell viability was 0.966.
Regarding `COC(=O)C1=C(C)NC(C)=C(C(=O)OCCN(C)Cc2ccccc2)C1c1cccc([N+](=O)[O-])c1` (stereo not drawn) [Nicardipine HCl] + CCN1C(=O)N(c2c(F)c(OC)cc(OC)c2F)Cc2cnc3[nH]c(CN4CCOCC4)cc3c21 [pemigatinib], the cell viability stood at 1.
With `Cc1nc(C#Cc2ccnc(Cl)c2)c(C)n1-c1ccc(OC(F)(F)F)cc1` + CCN1C(=O)N(c2c(F)c(OC)cc(OC)c2F)Cc2cnc3[nH]c(CN4CCOCC4)cc3c21 [pemigatinib] the figure was 0.955; with `O=C1[C@H](CC[C@H](O)c2ccc(F)cc2)[C@@H](c2ccc(O)cc2)N1c1ccc(F)cc1` [Ezetimibe] + CCN1C(=O)N(c2c(F)c(OC)cc(OC)c2F)Cc2cnc3[nH]c(CN4CCOCC4)cc3c21 [pemigatinib], 0.991.
With `c1cc(-c2cnn3cc(-c4ccc(OCCN5CCCCC5)cc4)cnc23)ccn1` [Dorsomorphin (Compound C)] + CCN1C(=O)N(c2c(F)c(OC)cc(OC)c2F)Cc2cnc3[nH]c(CN4CCOCC4)cc3c21 [pemigatinib], the cell viability is 0.931.
Take `CN1CCC(NC(=O)c2cc(-c3c(O)cc(O)cc3Oc3ccc([N+](=O)[O-])cc3)on2)CC1` + CCN1C(=O)N(c2c(F)c(OC)cc(OC)c2F)Cc2cnc3[nH]c(CN4CCOCC4)cc3c21 [pemigatinib]: the cell viability was found to be 0.331.
With `Cc1cnc(C(=O)NCCc2ccc(S(=O)(=O)NC(=O)NC3CCCCC3)cc2)cn1` [Glipizide] + CCN1C(=O)N(c2c(F)c(OC)cc(OC)c2F)Cc2cnc3[nH]c(CN4CCOCC4)cc3c21 [pemigatinib], the cell viability came to 1.09.
As for `Cc1cc(-c2ncc(CC(=O)Nc3ccc(-c4cnccn4)cn3)cc2C)ccn1` + CCN1C(=O)N(c2c(F)c(OC)cc(OC)c2F)Cc2cnc3[nH]c(CN4CCOCC4)cc3c21 [pemigatinib], the figure is 0.959.
For `Nc1ncnc2c1C(=O)N(c1ccc([C@H]3CC[C@H](CC(=O)O)CC3)cc1)CCO2` + CCN1C(=O)N(c2c(F)c(OC)cc(OC)c2F)Cc2cnc3[nH]c(CN4CCOCC4)cc3c21 [pemigatinib], the cell viability stood at 1.02.
Regarding `CCCCCOC(=O)Nc1nc(=O)n([C@@H]2O[C@H](C)[C@@H](O)[C@H]2O)cc1F` [Capecitabine] + CCN1C(=O)N(c2c(F)c(OC)cc(OC)c2F)Cc2cnc3[nH]c(CN4CCOCC4)cc3c21 [pemigatinib], the cell viability came to 1.07.
Turning to `CCCCNc1ccc(C(=O)OCCN(C)C)cc1` [Tetracaine HCl] + CCN1C(=O)N(c2c(F)c(OC)cc(OC)c2F)Cc2cnc3[nH]c(CN4CCOCC4)cc3c21 [pemigatinib], the cell viability came out at 0.934.
For `CCN(CC)CCOc1ccc(C(=C(Cl)c2ccccc2)c2ccccc2)cc1` [Clomifene citrate] + CCN1C(=O)N(c2c(F)c(OC)cc(OC)c2F)Cc2cnc3[nH]c(CN4CCOCC4)cc3c21 [pemigatinib], the cell viability is 0.886.
As for `COc1ncc(-c2ccc3nccc(-c4ccnnc4)c3c2)cc1NS(=O)(=O)c1ccc(F)cc1F` + CCN1C(=O)N(c2c(F)c(OC)cc(OC)c2F)Cc2cnc3[nH]c(CN4CCOCC4)cc3c21 [pemigatinib], the figure is 0.201; as for `COc1cc2ncnc(Oc3ccc(CC(=O)Nc4cnn(C(C)C)c4)cc3)c2cc1OC` + CCN1C(=O)N(c2c(F)c(OC)cc(OC)c2F)Cc2cnc3[nH]c(CN4CCOCC4)cc3c21 [pemigatinib], 0.932; as for `CN1CCC(=C2c3ccccc3CCc3sccc32)CC1` [Pizotifen Malate] + CCN1C(=O)N(c2c(F)c(OC)cc(OC)c2F)Cc2cnc3[nH]c(CN4CCOCC4)cc3c21 [pemigatinib], 0.949.
As for `O=C(O)c1cc(I)ccc1NC(=O)[C@H](Cc1ccccc1)NCc1ccccc1` + CCN1C(=O)N(c2c(F)c(OC)cc(OC)c2F)Cc2cnc3[nH]c(CN4CCOCC4)cc3c21 [pemigatinib], the figure is 1.06.
Consider `COc1ccc(C2=N[C@H](c3ccc(Cl)cc3)[C@H](c3ccc(Cl)cc3)N2C(=O)N2CCNC(=O)C2)c(OC(C)C)c1` [Nutlin-3b] + CCN1C(=O)N(c2c(F)c(OC)cc(OC)c2F)Cc2cnc3[nH]c(CN4CCOCC4)cc3c21 [pemigatinib], for which the cell viability amounted to 1.
With `Cc1cnc(C(=O)O)c[n+]1[O-]` [Acipimox] + CCN1C(=O)N(c2c(F)c(OC)cc(OC)c2F)Cc2cnc3[nH]c(CN4CCOCC4)cc3c21 [pemigatinib], the cell viability turned out to be 0.956.
For `O=C(c1cncc(Br)c1)N1CCC(N2CCCC2)CC1` + CCN1C(=O)N(c2c(F)c(OC)cc(OC)c2F)Cc2cnc3[nH]c(CN4CCOCC4)cc3c21 [pemigatinib], the cell viability worked out at 0.942.
With `O=C(Nc1ccc([N+](=O)[O-])cc1O)Nc1ccccc1Br` + CCN1C(=O)N(c2c(F)c(OC)cc(OC)c2F)Cc2cnc3[nH]c(CN4CCOCC4)cc3c21 [pemigatinib], the cell viability is 0.591.
As for `O=c1c(O)c(-c2ccc(O)c(O)c2)oc2cc(O)cc(O)c12` [Quercetin] + CCN1C(=O)N(c2c(F)c(OC)cc(OC)c2F)Cc2cnc3[nH]c(CN4CCOCC4)cc3c21 [pemigatinib], the figure is 0.944; as for `O=c1c(O)c(-c2ccc(O)c(O)c2)oc2cc(O)cc(O)c12` [Quercetin Dihydrate] + CCN1C(=O)N(c2c(F)c(OC)cc(OC)c2F)Cc2cnc3[nH]c(CN4CCOCC4)cc3c21 [pemigatinib], 0.896; as for `COc1ccc(CN2CCN(C(c3ccc(F)cc3)c3ccc(F)cc3)CC2)c(OC)c1OC` [Lomerizine HCl] + CCN1C(=O)N(c2c(F)c(OC)cc(OC)c2F)Cc2cnc3[nH]c(CN4CCOCC4)cc3c21 [pemigatinib], 0.932.
`CC(C)Cc1ccc(C(C)C(=O)O)cc1` (stereo not drawn) [Ibuprofen] + CCN1C(=O)N(c2c(F)c(OC)cc(OC)c2F)Cc2cnc3[nH]c(CN4CCOCC4)cc3c21 [pemigatinib]: the cell viability came out at 1.06.
On to `CCN1CCN(Cc2ccc(Nc3ncc(F)c(-c4cc(F)c5nc(C)n(C(C)C)c5c4)n3)nc2)CC1` + CCN1C(=O)N(c2c(F)c(OC)cc(OC)c2F)Cc2cnc3[nH]c(CN4CCOCC4)cc3c21 [pemigatinib], for which the cell viability amounted to 0.633.
As for `COCCc1ccc(OCC(O)CNC(C)C)cc1` (stereo not drawn) [Metoprolol Tartrate] + CCN1C(=O)N(c2c(F)c(OC)cc(OC)c2F)Cc2cnc3[nH]c(CN4CCOCC4)cc3c21 [pemigatinib], the figure is 0.877.
As for `COc1cc2ncnc(Nc3ccc(F)c(Cl)c3)c2cc1OCCCN1CCOCC1` [Gefitinib (ZD1839)] + CCN1C(=O)N(c2c(F)c(OC)cc(OC)c2F)Cc2cnc3[nH]c(CN4CCOCC4)cc3c21 [pemigatinib], the cell viability worked out at 0.847.
